From PubChem BioAssay AID1466 (National Center for Advancing Translational Sciences (NCATS), 2008)
The campaign covered roughly 200,000 compounds. About 10 (0.005%) were called active. This list was built around the results that the source calls inconclusive (neither active nor inactive); the mix of calls is not that of the screen. The call rests on the fitted dose curve; in most records, active means well fitted inhibition curve with a large enough effect; inconclusive means small, poorly fitted or top-dose-only effect, or effect the other way, or another doubt; inactive means no such curve, though single readings can be large or run the other way. No potency is given beside an inconclusive call; the fits are too rough.

Target: Lysosomal alpha-glucosidase (Homo sapiens) (UniProt P10253)
Test: qHTS Assay for Inhibitors of Human alpha-Glucosidase as a Potential Chaperone Treatment of Pompe Disease;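 on activity change, negative = inhibition: plate controls were uninhibited enzyme wells for no effect and no-enzyme background for full effect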
Settings: purified human GAA, 4-MU-alpha-glucoside fluorescence; activity change, negative = inhibition: at 76.9 µM (top of the series) unless noted
Method in brief: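 Fluorescence at Ex 365/Em 440 nm from 4-methylumbelliferone reported enzyme activity after 20 min at room temperature. Reactions used 4 nM enzyme and 400 uM substrate at pH 5.0; curves fitted with the Hill equation.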
Potency means the concentration at half of the fitted maximal effect; tags describe the fitted curve by direction and shape.

SMILES	Potency	activity change, negative = inhibition
CCCCn1c2nc3ccccc3nc2c2c(=O)n(-c3ccccc3)cnc21	inconclusive [activator, partial curve]	–
CCCN1C(=O)/C(=C/c2ccc(N3CCCC3)c(C)c2)NC1=S	inconclusive [inhibitor, single point]	–
CCCNC(=O)/C=C/c1ccc(S(=O)(=O)Nc2ccccc2OC)cc1	inconclusive [inhibitor, single point]	–
Cc1cc(-c2ccn[nH]2)c(C)s1	–	inconclusive: -15.5% [inhibitor]
COc1ccc(N2CCN(C(CNS(=O)(=O)c3ccc4c(c3)OCCO4)c3ccco3)CC2)cc1 (stereo not given)	inconclusive [inhibitor, partial curve]	–
COc1cccc(NC(=O)CSc2nccn2-c2cccc(OC)c2)c1	–	inconclusive: -15.8% [inhibitor]
O=C(O)c1ccccc1C(=O)NNc1ccc(Cl)cc1Cl	inactive	–
CCN(CC)C(=O)COc1ccc2c(c1)C(=O)CC(C)(C)O2	inconclusive [activator, partial curve]	–
Cn1c(SCC(=O)N2CCOCC2)nnc1-c1cnccn1	–	inconclusive: -15.9% [inhibitor]
CCCCCOc1ccc(C(=O)N(Cc2ccco2)C2CCS(=O)(=O)C2)cc1 (stereo not given)	inconclusive [inhibitor, single point]	–
CCCn1c(=S)[nH]c2ccccc2c1=O	–	inconclusive: 4.55% [activator]
CCOc1ccccc1C1C(C(=O)Nc2ccccc2OC)=C(C)Nc2nc(CCCO)nn21 (stereo not given)	inconclusive [inhibitor, single point]	–
Cc1cccn2c(=O)c3cc(C#N)c(=O)n(CC4CCCO4)c3nc12 (stereo not given)	inconclusive [activator, partial curve]	–
CCS(=O)(=O)N1CCCC(c2nc(-c3cccc(OC)c3)no2)C1 (stereo not given)	inconclusive [inhibitor, single point]	–
O=C(Nc1ccccc1-c1ccccc1)NC1CCN(CC(=O)N2CCOCC2)CC1	inconclusive [inhibitor, single point]	–
CCCOc1cccc(-c2cc(C(=O)NNC(=S)NCC)c3ccccc3n2)c1	inconclusive [inhibitor, partial curve, poor fit]	–
CCCNS(=O)(=O)c1ccc(CCC(=O)N2CCN(CC)CC2)cc1	inconclusive [inhibitor, single point]	–
CCOc1ccc(OCC)c(NC(=O)CN(c2ccc(C)cc2)S(=O)(=O)c2c(C)noc2C)c1	inconclusive [inhibitor, full curve]	–
Cc1ccc2nc3c(cc(C(=O)NCCCn4ccnc4)n3C)c(=O)n2c1	inconclusive [activator, partial curve]	–
Cc1[nH]n(C(N)=S)c(=O)c1N=Nc1ccc(S(=O)(=O)N2CCCC2)cc1	inconclusive [inhibitor, single point]	–
Cc1ccc(C)c(NC(=O)c2ccccc2NC(=O)C2CCCO2)c1 (stereo not given)	–	inconclusive: 1.93% [activator]
CC(NC(=O)c1ccc(CS(=O)(=O)Cc2ccccc2F)o1)c1ccc2c(c1)OCCO2 (stereo not given)	inconclusive [inhibitor, full curve, poor fit]	–

SMILES	Potency	activity change, negative = inhibition
Cc1ccc(S(=O)(=O)c2c(N)n(Cc3ccco3)c3nc4ccccc4nc23)cc1	inconclusive [activator, partial curve]	–
O=C(O)CC1SC(=Nc2ccccc2)N(c2ccccc2)C1=O (stereo not given)	–	inconclusive: 19.9% [activator]
COCC(C)OC(=O)C(C#N)c1nc2ccccc2nc1N1CCN(Cc2ccccc2)CC1 (stereo not given)	inconclusive [inhibitor, single point]	–
CCOc1ccc2c(c1)C(C)=CC(C)(C)N2C(=O)Nc1ccccc1	–	inconclusive: 19% [activator]
O=C(O)CCCNc1n[nH]c(=O)[nH]c1=O	inconclusive [activator, partial curve]	–
O=C(N/N=C/c1cc([N+](=O)[O-])ccc1Cl)c1ccc2nc[nH]c2c1	inconclusive [inhibitor, partial curve, poor fit]	–
Cn1c(CSCc2ccc(Cl)cc2Cl)n[nH]c1=S	inactive	–
Cc1cccc(C)c1NC(=O)CN1C(=O)S/C(=C\c2cccn2-c2cccc(C(=O)O)c2)C1=O	inconclusive [inhibitor, partial curve]	–
CCN(CCNC(=O)CN1CCN(Cc2ccc(Cl)cc2)C1=O)c1ccccc1	inconclusive [inhibitor, partial curve, poor fit]	–
CCOc1ccc(NC(=O)Nc2nnc(CC(=O)NCc3ccccc3)s2)cc1	–	inconclusive: 19.8% [activator]
COc1cc(/C=C/c2cc(C(F)(F)F)[nH]c(=O)n2)cc(OC)c1OC	–	inconclusive: 14.3% [activator]
COc1ccc(NS(=O)(=O)c2cccc(NC(=O)c3ccccn3)c2)cc1	inconclusive [inhibitor, partial curve]	–
COc1ccccc1C(=O)Nc1ccc(-c2nnn(CC(=O)N3CCOCC3)n2)cc1	inconclusive [activator, full curve, poor fit]	–
COc1ccc(/C(N)=N/OC(=O)CN(C)S(=O)(=O)c2ccc(C)cc2)cc1	inconclusive [inhibitor, single point]	–
CCCNC(=O)COC(=O)c1cc(-c2ccc(OC)cc2)nc2ccccc12	inconclusive [activator, single point]	–
COc1cccc(C=Nc2ccccc2C(=O)Nc2nccs2)c1OC	inconclusive [activator, single point]	–
COC(=O)c1sccc1NC(=O)c1c(C)cc(=O)oc1C	inconclusive [inhibitor, single point]	–
Fc1ccccc1N=C1Nc2cccc3cccc1c23	inconclusive [inhibitor, partial curve]	–
COc1ccc(C(=S)Nc2ccc(C)cc2)cc1	inactive	–
Fc1cccc(Cl)c1Cn1nnc2c(NCc3ccccn3)ncnc21	inconclusive [inhibitor, partial curve]	–
Cc1[nH]c2ccccc2c1C(=O)COc1ccccc1	–	inconclusive: 15.6% [activator]
Cc1cc(=O)oc2cc(OCC(O)CN3CCc4ccccc4C3)ccc12 (stereo not given)	–	inconclusive: 22.1% [activator]

SMILES	Potency	activity change, negative = inhibition
O=C(O)C(=O)/C(=C\c1cccc2ccccc12)c1ccc2ccccc2n1	inconclusive [activator, single point]	–
COC(=O)[C@@H](NC(=O)NCc1ccco1)C(C)C	inconclusive [inhibitor, single point]	–
O=C(Nc1ccc(F)cc1)C(c1ccccc1)N1CCN(S(=O)(=O)c2ccc3ccccc3c2)CC1 (stereo not given)	inactive	–
C(=N\Nc1nc2ccccc2[nH]1)/c1ccccn1	inactive	–
Cc1ccc(N=Nc2c(C)[nH]n(-c3ccccc3)c2=O)c(C)c1	inconclusive [activator, single point]	–
CN(C)/C=C/C(=O)c1ccc(S(=O)(=O)c2ccccc2)cc1	inconclusive [inhibitor, single point]	–
COc1cc2c(cc1OC)CC(=O)N(C)CC2	inconclusive [inhibitor, partial curve]	–
O=C(NCc1ccco1)C1CCCN(S(=O)(=O)c2ccc(Cl)cc2)C1 (stereo not given)	inconclusive [inhibitor, partial curve]	–
O=C(CCC(=O)N/N=C/c1ccccc1O)NCc1ccccc1	inconclusive [activator, single point]	–
Cc1ccc(-n2c(O)c(/C=N/c3ncn[nH]3)c3ccccc3c2=O)cc1	inconclusive [inhibitor, single point]	–
COc1cccc(-c2nc(NCc3ccco3)c3ccccc3n2)c1O	inconclusive [inhibitor, single point]	–
COc1ccc(CCNC(=O)C(=O)NCC2OCCN2S(=O)(=O)c2ccc(Br)cc2)cc1OC (stereo not given)	inconclusive [inhibitor, single point]	–
COc1ccccc1OCC(=O)Nc1cccc(C(=O)N2CCOCC2)c1	inconclusive [inhibitor, single point]	–
CC(=O)c1cccc(OCC(=O)c2cc(C)n(-c3cc(C)on3)c2C)c1	inconclusive [inhibitor, partial curve]	–
CCCC(=Nc1ccccc1)C1=C(O)C(C(=O)OC)C(C)(C)CC1=O (stereo not given)	inconclusive [inhibitor, single point]	–
CCn1nc(C(=O)OC2CCOC2=O)c2ccccc2c1=O (stereo not given)	inconclusive [inhibitor, single point]	–
Clc1ccc(-c2nc3ncccn3c2Cl)cc1	inconclusive [activator, partial curve]	–
Nc1ccc(-c2ccc(N)cc2C(F)(F)F)c(C(F)(F)F)c1	inconclusive [inhibitor, partial curve]	–
Cc1c(C=O)c2ccccn2c1C(=O)c1ccncc1	inconclusive [inhibitor, single point]	–
O=S(=O)(NC1CCCC1)c1ccc(S(=O)(=O)N2CCc3ccccc32)cc1	inconclusive [inhibitor, partial curve, poor fit]	–
CCCCNCC(=O)Nc1ccc(NC(=O)CNCCCC)cc1	inconclusive [inhibitor, single point]	–
